According to article PMC5247395 (EJNMMI Research, 2017):
Values joined by “and” are separate entries in the source; they are usually repeats but may differ in a detail not shown here. Identical values can stand only once.

Tested on: PC-3 PIP/flu tumor-bearing mice
Assay: Biodistribution in PC-3 PIP/flu tumor-bearing mice
Conditions: ratio for PC-3 PIP tumor

| SMILES | Tumor-to-blood (15 min p.i.) | Tumor-to-kidney (15 min p.i.) | Tumor-to-liver (15 min p.i.) | Tumor-to-blood (30 min p.i.) | Tumor-to-kidney (30 min p.i.) | Tumor-to-liver (30 min p.i.) | Tumor-to-blood (2 h p.i.) | Tumor-to-kidney (2 h p.i.) | Tumor-to-liver (2 h p.i.) | Tumor-to-blood (6 h p.i.) | Tumor-to-kidney (6 h p.i.) | Tumor-to-liver (6 h p.i.) |
| --- | --- | --- | --- | --- | --- | --- | --- | --- | --- | --- | --- | --- |
| O=C([O-])CN1CCN(CC(=O)[O-])CCN(CC(=O)NCC2CCC(C(=O)NC(Cc3ccc4ccccc4c3)C(=O)NCCCCC(NC(=O)NC(CCC(=O)O)C(=O)O)C(=O)O)CC2)CCN(CC(=O)[O-])CC1.[44Sc+3] (stereo not shown) [^44Sc-PSMA-617] | 5.38 ± 0.90 | 0.97 ± 0.21 | 18.8 ± 5.02 | 17.6 ± 1.23 | 1.60 ± 0.22 | 55.6 ± 7.36 | >200 and 227 ± 63.4 | 7.98 ± 1.71 | >200 and 216 ± 33.4 | 194 ± 21.0 | 17.0 ± 2.58 | 167 ± 32.5 |
| O=C([O-])CN(CCN(CC(=O)[O-])Cc1cc(CCC(=O)NCCCCCC(=O)NCCCC[C@H](NC(=O)N[C@@H](CCC(=O)O)C(=O)O)C(=O)O)ccc1[O-])Cc1cc(CCC(=O)O)ccc1[O-].[68Ga+3] [^68Ga-PSMA-11] | 6.10 ± 1.84 | 0.41 ± 0.14 | 15.3 ± 3.96 | 20.5 ± 6.40 | 0.58 ± 0.10 | 31.7 ± 2.48 | – | 0.69 ± 0.12 | 71.3 ± 7.48 | – | – | – |
| O=C([O-])CN1CCN(CC(=O)[O-])CCN(CC(=O)NCC2CCC(C(=O)NC(Cc3ccc4ccccc4c3)C(=O)NCCCCC(NC(=O)NC(CCC(=O)O)C(=O)O)C(=O)O)CC2)CCN(CC(=O)[O-])CC1.[68Ga+3] (stereo not shown) [^68Ga-PSMA-617] | 4.15 ± 0.24 | 1.26 ± 0.25 | 6.02 ± 0.59 | 16.9 ± 4.22 | 3.62 ± 0.81 | 19.0 ± 2.32 | >200 and 387 ± 98.1 | 15.9 ± 3.26 | 35.2 ± 9.94 | – | – | – |
| O=C([O-])CN1CCN(CC(=O)[O-])CCN(CC(=O)NCC2CCC(C(=O)N[C@@H](Cc3ccc4ccccc4c3)C(=O)NCCCC[C@H](NC(=O)N[C@@H](CCC(=O)O)C(=O)O)C(=O)O)CC2)CCN(CC(=O)[O-])CC1.[177Lu+3] (stereo partly shown) [^177Lu-PSMA-617] | 4.45 ± 0.66 | 1.06 ± 0.14 | 20.4 ± 5.48 | 16.0 ± 3.52 | 2.09 ± 0.24 | 53.1 ± 6.68 | – | 11.6 ± 0.87 | >200 and 346 ± 22.7 | 2988 ± 351 | 22.5 ± 1.79 | 617 ± 66.2 |
